Among the test systems are LOX IMVI melanoma; COLO 205 colon; T-47D breast; HL-60(TB) leukemia; UACC-257 melanoma; UO-31 renal; HOP-92 NSCLC; CCRF-CEM leukemia.
Holding throughout (assay): NCI-60 cell line screen, 48 h

Five compounds from PubChem BioAssay (NCI) can be followed below.

Structures are written as SMILES.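 96-well plates; 48 h exposure; 5 concentrations. Endpoints by linear interpolation between flanking doses. Not reached: highest tested concentration assigned. Here, GI50 denotes the concentration required for 50% inhibition of growth.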 The source holds more than one record for some entries. They are shown here; other results are not. There may be further records. For some of these results: Results that share an entry repeat one measurement (runs, samples, wells, individuals or studies). What stands in brackets tells the records apart. Letters hold for one entry only.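 TGI marks complete inhibition of growth.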 For some of these results: The tests behind the records often covered other concentration ranges, not given here; a value can be the end of its range.

As to `CN(C)CC/C=C1\c2ccccc2Sc2ccc(Cl)cc21`, the TGI in the assay on LOX IMVI melanoma is 31.8 µM [sample A] and 3.03 µM [sample B]; in the assay on COLO 205 colon, 29.7 µM [sample A] and 2.95 µM [sample B]; in the assay on T-47D breast it was 41.2 µM [sample A] and 3.91 µM [sample B].

For the compound `CC(=O)[O-].CC(=O)[O-].[Mn+2].c1ccc(/C(=N\Nc2ccccn2)c2ccccn2)cc1`, the TGI in the assay with COLO 205 colon was 2.93 nM and 13.5 µM.

With `NC1=NC(=O)N2CC12` (stereo not given), the TGI in the assay with HL-60(TB) leukemia was > 100 µM [sample A] and 4.24 µM, 136 µM [sample B].

Take `CCC1(O)CC(OC2CC(N(C)C)C(OC3CC(O)C(OC4OC(C)C(=O)C=C4N)C(C)O3)C(C)O2)c2c(O)c3c(c(O)c2C1C(=O)OC)C(=O)c1cccc(O)c1C3=O` (stereo not given): the TGI with UACC-257 melanoma was 557 nM and 24.1 nM; in the assay on T-47D breast, 141 nM and 2.73 µM; with UO-31 renal, 293 nM and 27.6 nM.

In the case of `CNC(=O)c1ccc(Nc2ncc(C(F)(F)F)c(NCc3nccnc3N(C)S(C)(=O)=O)n2)cc1`, in the assay with HOP-92 NSCLC, the GI50 was 127 nM [sample A, 1 test] and 1.54 µM [sample B, mean of 2 tests] and 291 nM [sample C, mean of 2 tests]. Besides, in the assay with CCRF-CEM leukemia, the TGI is > 10 µM [sample A, 1 test] and 9.73 µM [sample B, 1 test] and > 100 µM [sample C, mean of 2 tests].
